Source: article PMC6919601, “Identification of Plasmodium dipeptidyl aminopeptidase allosteric inhibitors by high throughput screening” (PLoS ONE, 2019)
The campaign covered roughly 110,000 compounds. About 230 (0.21%) showed an effect of 50% or more. Some of the results follow.

molecular target: DPAP1 (Plasmodium falciparum, UniProt Q8IIJ9); test: primary screen, percent inhibition; read by cleavage of a fluorogenic dipeptide substrate; higher = more effect of the substance; set-up: species or system P. falciparum D10 trophozoite lysates; single well
Sequence (Q8IIJ9 whole entry, looked up): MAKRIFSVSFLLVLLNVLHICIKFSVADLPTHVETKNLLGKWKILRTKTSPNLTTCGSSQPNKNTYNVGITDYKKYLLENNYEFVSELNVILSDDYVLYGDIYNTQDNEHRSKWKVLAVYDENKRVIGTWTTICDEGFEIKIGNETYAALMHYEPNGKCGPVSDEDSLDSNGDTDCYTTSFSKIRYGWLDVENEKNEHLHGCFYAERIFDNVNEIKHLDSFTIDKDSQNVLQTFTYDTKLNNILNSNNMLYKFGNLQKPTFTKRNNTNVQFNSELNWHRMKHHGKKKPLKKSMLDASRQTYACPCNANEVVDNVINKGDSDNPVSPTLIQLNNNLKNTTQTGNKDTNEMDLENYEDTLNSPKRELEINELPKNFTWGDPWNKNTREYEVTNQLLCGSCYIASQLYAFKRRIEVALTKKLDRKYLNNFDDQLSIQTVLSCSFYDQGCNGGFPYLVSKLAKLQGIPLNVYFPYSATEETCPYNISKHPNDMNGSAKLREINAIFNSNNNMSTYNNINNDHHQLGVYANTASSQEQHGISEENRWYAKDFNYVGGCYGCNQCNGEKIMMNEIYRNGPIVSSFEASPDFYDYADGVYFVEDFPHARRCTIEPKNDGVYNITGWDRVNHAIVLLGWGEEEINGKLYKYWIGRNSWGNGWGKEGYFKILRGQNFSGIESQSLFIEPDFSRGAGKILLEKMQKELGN
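Note: 30 min substrate incubation versus DMSO and 10 µM JCP410 controls.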

Compound | % Inhibition @ 10 uM [%]
O=C(NCCc1ccccc1)C(=O)NC1CCCCC1 | -0.414
CCOC(=O)c1cc2c(=O)n3ccccc3nc2n(CCCOC)/c1=N\C(=O)/C=C/c1ccccc1 | -2.9
COc1ccc(C2N(S(C)(=O)=O)CCCN2S(=O)(=O)c2ccc(C)cc2)cc1 (centres unmarked) | 3.54
CC(C)(C)OC(=O)N1CCC(c2c(C(=O)N3CCC(c4ccccc4)C3)cnn2C(C)(C)C)CC1 (centres unmarked) | 6.36
CCOC(=O)c1cnc2ncnn2c1C | 2.39
O=C(Nc1ccc(-c2ccc(Cl)cc2)cc1)NS(=O)(=O)c1ccccc1Cl | -4.61
COc1ccc(O)c(CN2CC=C(c3ccc(F)cc3)CC2)c1 | 4.68
Cc1cc(O)c(C(=O)/C=C/c2cc(Br)ccc2O)c(=O)o1 | -0.0369
Nc1nc2c3ccccc3nc(C3CC3)n2n1 | -3.33
Brc1ccc2c(c1)CN(C1CCCCC1)CO2 | -5.75
Cc1cc(C)c2c(n1)nn1c(C)c(CCC(=O)N3CCC(Cc4ccccc4)CC3)c(C)nc21 | -2.45
O=[N+]([O-])c1ccccc1CN1CCN(c2cccc(C(F)(F)F)c2)CC1 | 1.96
O=C1NC(=O)/C(=C\c2ccc(N3CCOCC3)cc2)N1 | -6.32
CCN(CC)c1ccc(NC(=O)COc2ccc(C)cc2)cc1 | 1.7
COc1ccc(C2CC(C(F)(F)F)n3nc(C(=O)NCc4cn(C)nc4C)cc3N2)cc1OC (centres unmarked) | -2.94
O=c1c2c(c(-c3ccccc3)nn1Cc1ccccc1)CCCC2 | -2.71
Cc1ccccc1C(=O)Nc1ccc(Br)cc1 | 5.06
Cc1ccc(C(=O)N2CCN(c3ccc(F)cc3)CC2)cc1 | -1.62
CCCCN(CC)CCNC(=O)CN1C(=O)C(c2ccccc2)Oc2cccnc21 (centres unmarked) | -5.99
CCOC(=O)C1CCN(C(=O)c2ccc(F)cc2)CC1 | -2.58
COc1cc(C(=O)NC2CCCCCCC2)cc(OC)c1OC | -7.55

Compound | % Inhibition @ 10 uM [%]
CC1=C(C(=O)OCCC(C)C)C(c2ccc(Br)cc2)NC(=O)N1 (centres unmarked) | 7.28
Cc1nc2scc(C)n2c(=O)c1S(=O)(=O)NC(C)c1ccccc1 (centres unmarked) | 0.128
COc1cc([C@H]2[C@H](C(=O)C(C)(C)C)N3C=Cc4ccccc4[C@H]3C2(C#N)C#N)cc(OC)c1OC | 6.5
CCn1c(C(=O)NCCCN2CCCCC2C)cc2sc(Cl)cc21 (centres unmarked) | -1.37
Cc1cccc(NC(=O)CSc2nc(C)cc(C(F)(F)F)c2C#N)n1 | -4.76
CC(CC(=O)O)Nc1ccc(Oc2ccccc2)cc1 (centres unmarked) | 3.69
Cc1nc2c(nc(C)n2-c2ccccc2)s1 | 2.92
COc1cccc(N2CCN(C3C4CC5CC(C4)CC3C5)CC2)c1 (centres unmarked) | -0.446
CC(C)(C)C(=O)NCc1nc(-c2ccccc2)no1 | -3.22
Cc1nn2c(=O)/c(=C/c3ccc(-c4ccc(F)cc4)o3)sc2nc1=O | -13.4
O=C(COc1ccccc1N1C(=O)C2C3C=CC(C4CC34)C2C1=O)c1ccc(F)cc1 (centres unmarked) | 1.62
O=C(c1ccccc1)N1N=C(c2ccco2)CC1c1ccco1 (centres unmarked) | 1.49
O=S1(=O)C(/C=N/c2cccnc2)=C(O)c2sccc2N1Cc1ccc(Cl)cc1 | 5.41
COc1ccc(Cl)cc1N(CC(=O)NCc1ccccc1C)S(C)(=O)=O | 0.324
CC(=O)c1c(C)oc2c(Cl)cc(NS(=O)(=O)c3cccs3)cc12 | 41.9
Nc1ccc(S(=O)(=O)c2ccc(NC(=O)c3ccccc3Cl)cc2)cc1 | -2.72
COc1cccc2c1Oc1ncccc1N(C(=O)CCC(=O)NCc1ccccn1)C2 | -3.94
Cn1c(=O)c2c(nc(SCCN3CCOCC3)n2Cc2ccccc2Cl)n(C)c1=O | -5.08
COc1ccccc1C1C(C#N)=C(N)Oc2[nH]nc(C(F)(F)F)c21 (centres unmarked) | -3.26
C=Cc1ccc(Cn2c(C)c(CNCCc3ccco3)c(C(=O)O)c2C)cc1 | 2.99
O=C(O)[C@H]1CCCC[C@H]1C(=O)Nc1ccc(Br)c(Cl)c1 | 4.75

Compound | % Inhibition @ 10 uM [%]
COC(=O)c1ccc(-n2nnnc2SCc2ccccn2)cc1 | -1.43
Cc1ccc(S(=O)(=O)N2CCCC2C(=O)NCCC23CC4CC(CC(C4)C2)C3)cc1 (centres unmarked) | 2.79
Cn1c(=O)c2c(nc(SCc3ccccc3)n2Cc2ccc(Cl)cc2)n(C)c1=O | 3.34
c1ccc2c(NCC3CCCO3)nc(N3CCOCC3)nc2c1 (centres unmarked) | -0.312
Cc1ccc(/C=C/C(=O)N(Cc2ccccc2)c2ccccn2)cc1 | 3.62
Cc1ccsc1CCNS(=O)(=O)c1ccc(-c2ccc(O)nn2)s1 | 3.76
CCOCCCNC(=O)C(NC(=O)C1CCC(=O)N1)c1ccc(C)cc1 (centres unmarked) | -2.9
CN1CCN(C(CC(=O)Nc2ccccc2Cl)C(=O)O)CC1 (centres unmarked) | -3.43
COc1ccc(OC)c(CCNCc2c(C(=O)O)c(C)n(Cc3ccc(F)cc3)c2C)c1 | -7.36
CCN(CC)c1ccc(NC(=O)c2ccc(OC)cc2OC)cc1 | 0.331
COc1ccc(OC)c(/C=C/C(=O)NCC2CCCO2)c1 (centres unmarked) | 2.49
CC(C)CC(NC(=O)c1cccc(NC(=O)N2CCN(CCN3CCOCC3)CC2)c1)C(=O)NCC#N (centres unmarked) | -7.36
O=C(Nc1nccs1)c1ccc2c(c1)C(=O)N(CC1CCCO1)C2=O (centres unmarked) | 19.3
COc1cc(/C=c2\sc3nc(-c4oc5ccccc5c4C)nn3c2=O)cc(OC)c1OC | 1.91
O=S(=O)(c1ccccc1)N1CCSC1c1ccco1 (centres unmarked) | 2.46
COc1ccc(NC(=O)CN(c2ccc(C)c(Cl)c2)S(C)(=O)=O)cc1OC | -3.39
O=C(O)CCCCCN1C(=O)c2ccc(C(=O)O)cc2C1=O | 2.68
CCOc1cccc2cc(-c3csc(NC(=O)CCC(=O)N4CCOCC4)n3)c(=O)oc12 | 3.7
CCn1c(C(=O)NCCCN2CCc3ccccc3C2)cc2sc(Cl)cc21 | -6.68
CC(=O)NC(Cc1ccccc1)c1ccc2c(c1)OCCCO2 (centres unmarked) | 3.6
